# In the supplement of paper PMC8728848:
# The other results are listed elsewhere or left out.
# B1: HPA (Helix pomatia), Q575S3 (protein)
# chain: MWAHLTGLLLICALSLSAAQRAQTGEIDCGSDSSWPKDPSDNPNRDNTREIVKHVTFSPQFCREPKVILSVTTLDAEHTKNLRYEARLKSVSPSGLSASCYSWHDGTIYRMKLSWLAVED
# Columns and labels:
# Assay in all cases: glycan array binding signal (z-score within array); higher = stronger binding
# Details in all cases: glycan notation: IUPAC condensed, linker removed
# [1] = target: Fuc(a1-2)Gal
# Outline: (§1)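 Glycan array binding is given as a within-array Z-score, which can be read as non-binding when negative. The arrays, 3228 of them, came from the Consortium for Functional Glycomics database and were retained only where the protein sequence was available. Z-scores were averaged across arrays of the same protein sequence at different concentrations or buffers and across linkers.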
# [2] = target: Fuc(a1-2)Gal(b1-3)GalNAc
# Outline: as §1
# [3] = target: Fuc(a1-2)Gal(b1-3)GalNAc(a1-3)[Fuc(a1-2)]Gal(b1-4)Glc
# Outline: as §1
# [4] = target: Fuc(a1-2)Gal(b1-3)GalNAc(a1-3)[Fuc(a1-2)]Gal(b1-4)GlcNAc
# Outline: as §1
# [5] = target: Fuc(a1-2)Gal(b1-3)GalNAc(b1-3)Gal
# Outline: as §1
# [6] = target: Fuc(a1-2)Gal(b1-3)GalNAc(b1-3)Gal(a1-4)Gal(b1-4)Glc
# Outline: as §1
# [7] = target: Fuc(a1-2)Gal(b1-3)GalNAc(b1-4)[Neu5Ac(a2-3)]Gal(b1-4)Glc
# Outline: as §1
# [8] = target: Fuc(a1-2)Gal(b1-3)GlcNAc
# Outline: as §1
# [9] = target: Fuc(a1-2)Gal(b1-3)GlcNAc(b1-2)Man(a1-3)[Fuc(a1-2)Gal(b1-3)GlcNAc(b1-2)Man(a1-6)]Man(b1-4)GlcNAc(b1-4)GlcNAc
# Outline: as §1
# [10] = target: Fuc(a1-2)Gal(b1-3)GlcNAc(b1-2)Man(a1-3)[Fuc(a1-2)Gal(b1-3)GlcNAc(b1-2)Man(a1-6)]Man(b1-4)GlcNAc(b1-4)[Fuc(a1-6)]GlcNAc
# Outline: as §1
# [11] = target: Fuc(a1-2)Gal(b1-3)GlcNAc(b1-3)Gal(b1-4)Glc
# Outline: as §1
# [12] = target: Fuc(a1-2)Gal(b1-3)GlcNAc(b1-3)GalNAc
# Outline: as §1
# [13] = target: Fuc(a1-2)Gal(b1-3)GlcNAc(b1-3)[Fuc(a1-2)Gal(b1-3)GlcNAc(b1-6)]GalNAc
# Outline: as §1
# [14] = target: Fuc(a1-2)Gal(b1-3)GlcNAc(b1-3)[Fuc(a1-3)[Gal(b1-4)]GlcNAc(b1-6)]Gal(b1-4)Glc
# Outline: as §1
# [15] = target: Fuc(a1-2)Gal(b1-3)GlcNAc(b1-3)[Gal(b1-4)GlcNAc(b1-6)]Gal(b1-4)Glc
# Outline: as §1
# [16] = target: Fuc(a1-2)Gal(b1-3)GlcNAc(b1-3)[Gal(b1-4)[Fuc(a1-3)]GlcNAc(b1-6)]Gal(b1-4)Glc
# Outline: as §1
# [17] = target: Fuc(a1-2)Gal(b1-3)GlcNAc(b1-3)[Neu5Ac(a2-6)Gal(b1-4)GlcNAc(b1-6)]Gal(b1-4)Glc
# Outline: as §1
# [18] = target: Fuc(a1-2)Gal(b1-3)GlcNAc6S
# Outline: as §1
# [19] = target: Fuc(a1-2)Gal(b1-3)[Fuc(a1-4)]GlcNAc
# Outline: as §1
# [20] = target: Fuc(a1-2)Gal(b1-3)[Fuc(a1-4)]GlcNAc(b1-2)Man(a1-3)[Fuc(a1-2)Gal(b1-3)[Fuc(a1-4)]GlcNAc(b1-2)Man(a1-3)]Man(b1-4)GlcNAc(b1-4)GlcNAc
# Outline: as §1
# [21] = target: Fuc(a1-2)Gal(b1-3)[Fuc(a1-4)]GlcNAc(b1-2)Man(a1-3)[Fuc(a1-2)Gal(b1-3)[Fuc(a1-4)]GlcNAc(b1-2)Man(a1-6)]Man(b1-4)GlcNAc(b1-4)GlcNAc
# Outline: as §1
# [22] = target: Fuc(a1-2)Gal(b1-3)[Fuc(a1-4)]GlcNAc(b1-2)Man(a1-3)[Fuc(a1-2)Gal(b1-3)[Fuc(a1-4)]GlcNAc(b1-2)Man(a1-6)]Man(b1-4)GlcNAc(b1-4)[Fuc(a1-6)]GlcNAc(b1-4)[Fuc(a1-6)]GlcNAc
# Outline: as §1
# [23] = target: Fuc(a1-2)Gal(b1-3)[Fuc(a1-4)]GlcNAc(b1-3)[Fuc(a1-3)[Gal(b1-4)]GlcNAc(b1-6)]Gal(b1-4)Glc
# Outline: as §1
# [24] = target: Fuc(a1-2)Gal(b1-3)[Fuc(a1-4)]GlcNAc(b1-3)[Gal(b1-4)GlcNAc(b1-6)]Gal(b1-4)Glc
# Outline: as §1
# [25] = target: Fuc(a1-2)Gal(b1-4)Fuc(a1-3)]GlcNAc(b1-2)Man(a1-3)[Fuc(a1-2)Gal(b1-4)[Fuc(a1-3)]GlcNAc(b1-2)Man(a1-6)]Man(b1-4)GlcNAc(b1-4)GlcNAc
# Outline: as §1
# [26] = target: Fuc(a1-2)Gal(b1-4)Glc
# Outline: as §1
# [27] = target: Fuc(a1-2)Gal(b1-4)Glc6S
# Outline: as §1
# [28] = target: Fuc(a1-2)Gal(b1-4)GlcNAc
# Outline: as §1
# [29] = target: Fuc(a1-2)Gal(b1-4)GlcNAc(b1-2)Man
# Outline: as §1
# [30] = target: Fuc(a1-2)Gal(b1-4)GlcNAc(b1-2)Man(a1-3)[Fuc(a1-2)Gal(b1-4)GlcNAc(b1-2)Man(a1-6)]Man(b1-4)GlcNAc(b1-4)GlcNAc
# Outline: as §1
# [31] = target: Fuc(a1-2)Gal(b1-4)GlcNAc(b1-2)Man(a1-3)[Fuc(a1-2)Gal(b1-4)GlcNAc(b1-2)Man(a1-6)]Man(b1-4)GlcNAc(b1-4)[Fuc(a1-6)]GlcNAc
# Outline: as §1
# [32] = target: Fuc(a1-2)Gal(b1-4)GlcNAc(b1-2)[Fuc(a1-2)Gal(b1-4)GlcNAc(b1-4)]Man(a1-3)[Fuc(a1-2)Gal(b1-4)GlcNAc(b1-2)Man(a1-6)]Man(b1-4)GlcNAc(b1-4)GlcNAc
# Outline: as §1
# [33] = target: Fuc(a1-2)Gal(b1-4)GlcNAc(b1-3)Gal(b1-4)GlcNAc
# Outline: as §1
# [34] = target: Fuc(a1-2)Gal(b1-4)GlcNAc(b1-3)Gal(b1-4)GlcNAc(b1-2)Man(a1-3)[Fuc(a1-2)Gal(b1-4)GlcNAc(b1-3)Gal(b1-4)GlcNAc(b1-2)Man(a1-6)]Man(b1-4)GlcNAc(b1-4)GlcNAc
# Outline: as §1
# [35] = target: Fuc(a1-2)Gal(b1-4)GlcNAc(b1-3)Gal(b1-4)GlcNAc(b1-3)Gal(b1-4)GlcNAc
# Outline: as §1
# [36] = target: Fuc(a1-2)Gal(b1-4)GlcNAc(b1-3)GalNAc
# Outline: as §1
# [37] = target: Fuc(a1-2)Gal(b1-4)GlcNAc(b1-3)[Fuc(a1-2)Gal(b1-4)GlcNAc(b1-6)]GalNAc
# Outline: as §1
binder,measurement,setting,value
B1,glycan array binding signal (z-score),[1],-0.262
same,glycan array binding signal (z-score),[2],-0.265
same,glycan array binding signal (z-score),[3],-0.239
same,glycan array binding signal (z-score),[4],0.219
same,glycan array binding signal (z-score),[5],-0.268
same,glycan array binding signal (z-score),[6],-0.267
same,glycan array binding signal (z-score),[7],-0.265
same,glycan array binding signal (z-score),[8],-0.264
same,glycan array binding signal (z-score),[9],-0.236
same,glycan array binding signal (z-score),[10],-0.242
same,glycan array binding signal (z-score),[11],-0.266
same,glycan array binding signal (z-score),[12],-0.248
same,glycan array binding signal (z-score),[13],-0.243
same,glycan array binding signal (z-score),[14],-0.248
same,glycan array binding signal (z-score),[15],-0.243
same,glycan array binding signal (z-score),[16],-0.315
same,glycan array binding signal (z-score),[17],-0.259
same,glycan array binding signal (z-score),[18],-0.244
same,glycan array binding signal (z-score),[19],-0.26
same,glycan array binding signal (z-score),[20],-0.229
same,glycan array binding signal (z-score),[21],-0.249
same,glycan array binding signal (z-score),[22],-0.246
same,glycan array binding signal (z-score),[23],-0.256
same,glycan array binding signal (z-score),[24],-0.238
same,glycan array binding signal (z-score),[25],-0.186
same,glycan array binding signal (z-score),[26],-0.255
same,glycan array binding signal (z-score),[27],-0.257
same,glycan array binding signal (z-score),[28],-0.267
same,glycan array binding signal (z-score),[29],-0.244
same,glycan array binding signal (z-score),[30],-0.244
same,glycan array binding signal (z-score),[31],-0.229
same,glycan array binding signal (z-score),[32],-0.235
same,glycan array binding signal (z-score),[33],-0.268
same,glycan array binding signal (z-score),[34],-0.243
same,glycan array binding signal (z-score),[35],-0.272
same,glycan array binding signal (z-score),[36],-0.244
same,glycan array binding signal (z-score),[37],-0.251
